Each structure is given as a SMILES string. The list shows a part of the results. Repeats are few or missing, and single values can be far off.

For the experiment, the system named is CquiOR32-CquiOrco. In words: current response class (signed ordinal: positive = inward/excitatory, negative = outward/inhibitory) (ordinal score (-3..3)); higher = stronger inward (excitatory) current. The following applies: 1 mM; holding potential (mV): -80.
On to `CC(=O)CCC=C(C)CCC=C(C)C` [geranylacetone], for which the current response class is inactive: 0. Next, `CCCC(=O)OC` [methyl butyrate]: inactive: 0; `CCCCCCCCCCCCCCCCCCOC(C)=O` [octadecyl acetate]: inactive: 0; `CC1=CC=C(C(C)C)CC1` [α-terpinene]: active: -1. Next, `C=CC(=C)CCC=C(C)C` [β-myrcene]: inactive: 0.

`CC(=O)c1ccccc1` [acetophenone]: the current response class is active: 2. Turning to `CC(=O)C(C)=CC1C(C)=CCCC1(C)C` (stereo not drawn) [α-cetone], the current response class is inactive: 0.

On to `O=C1CCCCC1` [cyclohexanone], for which the current response class is active: 3. Next, `CC12CCC(CC1=O)C2(C)C` (racemic) [(±)-camphor]: active: -3; `CCC(C)OC(=O)N1CCCCC1CCO` (stereo not given) [picaridin]: active: -1. Next, `CC1=CC[C@@H](C(C)(C)O)CC1` [α-terpineol]: active: -1; `CCCCCCC(C)O` (stereo not given) [2-octanol]: inactive: 0; `C=CCc1ccc(O)c(OC)c1` [eugenol]: active: -1.

On to `CCc1ccc(O)cc1` [4-ethylphenol], for which the current response class was inactive: 0. As for `CC(=O)OCCC(C)C` [isopentyl acetate], the current response class is inactive: 0.

Take `CC(C)C(C)O` (stereo not given) [3-methyl-2-butanol]: the current response class is active: 1. As for `CCC(=O)OCCc1ccccc1` [phenethyl propionate], the figure is inactive: 0; as for `CCCCCCCCCCCCO` [1-dodecanol], inactive: 0. Regarding `CCCCCCCCCCC(=O)OCC` [ethyl undecanoate], the current response class is inactive: 0.

As to `CC(C)=CCC/C(C)=C/C=O` [citral], the current response class is inactive: 0. With `Cc1cccc(C)c1O` [2,6-dimethylphenol], the current response class is inactive: 0. As for `CCCC(=O)OCC` [ethyl butanoate], the figure is inactive: 0; as for `CCCCCCCCC=O` [nonanal], inactive: 0; as for `CC(=O)C(C)=O` [2,3-butanedione], active: 2. Next, `COC(=O)c1ccccc1O` [methyl salicylate]: active: 3; `CC=O` [acetaldehyde]: inactive: 0; `CCCCCCC(C)=O` [2-octanone]: inactive: 0. As for `CCCCCCCCCCCCCC(=O)OC` [methyl myristate], the figure is inactive: 0. For `CCC(C)NC(=O)c1ccccc1C` (stereo not given) [N-(sec-butyl)-2-methylbenzamide], the current response class is active: -1. As for `CC(=O)OC/C=C(/C)CCC=C(C)C` [neryl acetate], the figure is inactive: 0; as for `CCCCC(C)=O` [2-hexanone], inactive: 0. Next, `CCCCCCCCCC(C)=O` [2-undecanone]: inactive: 0; `CCCC(=O)OC/C=C(\C)CCC=C(C)C` [geranyl butyrate]: inactive: 0; `CCCCCC/C=C/CO` [(E)-2-nonen-1-ol]: inactive: 0. For `CC(C)CCO` [isoamyl alcohol], the current response class is inactive: 0.
